According to patent US20230220053A1 (published 2023):

Biological target: T1, SARS-CoV-2-RBD (328-533)-Fc (SARS-CoV-2)
T1 construct: also called RBD-Fc
Experiment: SPR (Biacore T200), RBD captured on anti-human Fc chip, scFv injected

B1: 2020EP54-B12 scFv (scFv)
scFv: [about 100 residues omitted]VTRVGFDYWGQGTLVTVSSGGGGSGGGGSGGGGSSYELTQPPSVSVAPGKTARITCGGNNIGSKSVHWYQQKPGQAPVLVIYYDSDRPSGIPERFSGSNSGNTATLTISRVEAEDEADYYCQVWDSSSDVVFGGGTKLTVL
notes: also called 2020EP054-B12
Kd: 7.49 nM
koff: 0.00504 s⁻¹
kon: 672000 M⁻¹ s⁻¹
